Reference: publication PMC4336329 (PLoS ONE, 2015)
Out of some 310,000 compounds screened, about 2,200 (0.71%) showed an effect of 50% or more. The effect is printed as a negative number. This is one part of the list.

target: human ether-à-go-go-related gene (hERG) potassium channel (human, UniProt Q12809); test: primary screen, population patch clamp on CHO cells stably expressing hERG
Sequence (Q12809 whole entry, looked up): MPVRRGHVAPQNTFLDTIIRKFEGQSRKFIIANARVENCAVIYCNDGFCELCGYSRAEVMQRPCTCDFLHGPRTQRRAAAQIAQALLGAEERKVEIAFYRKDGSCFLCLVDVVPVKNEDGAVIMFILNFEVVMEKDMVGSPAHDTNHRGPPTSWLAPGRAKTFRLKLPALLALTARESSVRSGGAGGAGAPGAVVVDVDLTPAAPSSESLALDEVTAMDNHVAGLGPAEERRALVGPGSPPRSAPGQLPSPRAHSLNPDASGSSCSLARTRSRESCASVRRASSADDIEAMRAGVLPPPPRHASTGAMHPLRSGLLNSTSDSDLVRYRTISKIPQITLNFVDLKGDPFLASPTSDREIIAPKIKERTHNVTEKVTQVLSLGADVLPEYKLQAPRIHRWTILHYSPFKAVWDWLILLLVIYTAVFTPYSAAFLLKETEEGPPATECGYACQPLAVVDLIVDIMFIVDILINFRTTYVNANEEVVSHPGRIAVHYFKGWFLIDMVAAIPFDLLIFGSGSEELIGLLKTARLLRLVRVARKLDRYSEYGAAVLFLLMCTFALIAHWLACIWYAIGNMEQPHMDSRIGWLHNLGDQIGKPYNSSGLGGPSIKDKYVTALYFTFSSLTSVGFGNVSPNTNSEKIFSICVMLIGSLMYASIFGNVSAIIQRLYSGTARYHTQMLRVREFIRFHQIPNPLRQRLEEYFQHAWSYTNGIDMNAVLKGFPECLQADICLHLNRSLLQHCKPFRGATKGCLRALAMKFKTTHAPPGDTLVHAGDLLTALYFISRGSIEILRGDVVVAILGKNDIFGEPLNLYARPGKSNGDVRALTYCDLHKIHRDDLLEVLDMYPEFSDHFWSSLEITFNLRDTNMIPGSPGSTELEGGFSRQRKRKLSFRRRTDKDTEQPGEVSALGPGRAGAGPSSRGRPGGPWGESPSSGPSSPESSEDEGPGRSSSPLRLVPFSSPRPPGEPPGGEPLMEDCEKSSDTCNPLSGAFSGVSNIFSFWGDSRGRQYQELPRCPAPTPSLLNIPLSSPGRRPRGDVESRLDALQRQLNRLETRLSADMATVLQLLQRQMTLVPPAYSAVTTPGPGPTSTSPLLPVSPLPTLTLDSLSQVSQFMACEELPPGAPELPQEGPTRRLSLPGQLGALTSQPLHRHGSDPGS

| Compound | hERG current change (%, negative = inhibition) at 1uM [%] |
| --- | --- |
| O=C(ONc1ccc(N=NC(=O)c2ccccc2O)cc1)c1ccccc1 | 12.8 |
| NNC(=O)c1[nH]c2ccc([N+](=O)[O-])cc2c1-c1ccccc1 | 14.6 |
| Cc1cccc(OCCNC(=O)c2cncc(Br)c2)c1 | 6.79 |
| COc1ccc(Nc2nnc(SCC(=O)NC3CC3)s2)cc1 | 11.5 |
| NS(=O)(=O)c1ccc(NC(=O)COC(=O)C2(c3ccc(F)cc3)CCCC2)cc1 | 7.18 |
| Cc1ccc(-c2nn(-c3ccccc3)cc2C2SCC(=O)N2Cc2ccccc2)o1 (stereo not drawn) | 13.1 |
| CCN1CCN(C(=O)c2nn(-c3ccccc3)c(=O)c3ccccc23)CC1 | 5.91 |
| O=C(c1ccco1)N1CCN(C(c2cccs2)c2nnnn2C2CCCCC2)CC1 (stereo not drawn) | -5.75 |
| CC(NC(=O)CCC(=O)N1CCCCCC1)c1ccccc1 (stereo not drawn) | 16.8 |
| Cc1c2cnn(CC(=O)N3CCOCC3)c(=O)c2c(C)n1Cc1ccccc1F | 9.92 |
| CC(=O)Nc1ccc(NC(=O)COC(=O)c2n[nH]c3ccccc23)cc1 | 3.81 |
| O=C(O)CCNS(=O)(=O)c1ccc2c(c1)CCCC2 | 4.03 |
| Cc1cc(Cl)ccc1OCC(=O)Nc1cccc(S(=O)(=O)N2CCCC2)c1 | 3.55 |
| NC(=O)c1ccsc1NC(=O)c1ccco1 | 1.36 |
| Cc1nc2ccc(NC(=O)N3CCN(c4ccccn4)CC3)cc2s1 | 7.75 |
| COC(=O)c1ccc2ccn(CC(=O)NC3CCCCC3)c2c1 | 1.65 |
| O=C(O)c1cc(Cl)ccc1-c1ccc(/C=C/c2cc(C(F)(F)F)[nH]c(=O)n2)o1 | 7.85 |
| CCC(=O)N(Cc1cc(=O)[nH]c2ccccc12)c1ccccc1OC | 12.3 |
| CCN1CCN(c2nc(-c3ccccc3Cl)nc3ccccc23)CC1.Cl | -39.1 |
| CSc1ccc(CN(C)Cc2cc(=O)oc3c(C)c(C)ccc23)cc1 | 5.44 |
| O=C(NC1CCC(C(=O)O)CC1)OCc1ccccc1 (stereo not drawn) | 12.5 |
| O=C(CCNS(=O)(=O)c1ccc(Cl)cc1)OCC(=O)c1ccc[nH]1 | 3.99 |
| CCOC(=O)c1c(O)c2c(n(Cc3ccco3)c1=O)CCCC2 | 19.7 |

| Compound | hERG current change (%, negative = inhibition) at 1uM [%] |
| --- | --- |
| COc1ccc(/C=C(/NC(=O)c2ccccc2Cl)C(=O)O)cc1 | 8.61 |
| CCOc1ccccc1OCC(=O)Nc1ccc(Cl)cc1Cl | 14.1 |
| COc1cc(NC(=O)c2ccc(C)cc2C)ccc1NC(=O)c1cccs1 | 3.03 |
| CN(C)C(=O)c1nc(C#N)c(N(C)C)o1 | 11 |
| Cc1ccccc1S(=O)(=O)Cc1ccc(C(=O)NCCN(CC(C)C)CC(C)C)o1 | 0.83 |
| Cc1ccc(C(=O)Nc2ccc3c(c2)CCC3)cc1 | 16 |
| CCc1cc(=O)oc2cc(C)cc(OCC(=O)NCc3cccnc3)c12 | -0.591 |
| CCc1nc(NCC2CCCO2)c2oc3ccccc3c2n1.Cl (stereo not drawn) | -1.27 |
| COc1cccc(/C=C(/C(=O)OCC(=O)NC2CCCC(C)C2C)c2ccccc2)c1 (stereo not drawn) | 12.5 |
| Cc1cc(C)cc(NC(=S)N2CCC(NC(=O)C3CC3)CC2)c1 | 12 |
| COc1cc(=O)[nH]c(SC(C)C(=O)Nc2ccc3ccccc3c2)n1 (stereo not drawn) | 20 |
| O=C(CCN1C(=O)c2ccccc2C1=O)N1CCC(c2ccccc2)C1 (stereo not drawn) | 11.2 |
| COc1ccc(S(=O)(=O)N2CCCCCC2)cc1C(=O)NC1(C)CCS(=O)(=O)C1 (stereo not drawn) | -6.08 |
| COc1cccc(NC(=O)CN(C)C(=O)COc2ccc3ccccc3c2)c1 | 3.89 |
| COc1ccc(NC(=O)Cc2cccc(F)c2)cc1S(=O)(=O)Nc1ccccc1Cl | 10.5 |
| Cc1ccc(S(=O)(=O)N2CCC(C(=O)N3Cc4ccccc4C3)CC2)cc1 | 1.89 |
| CC(NC(=O)Cc1cccc2ccccc12)C(=O)N1CCC(=O)CC1 (stereo not drawn) | 14.1 |
| CC(C)(CNC(=O)c1cccc(S(=O)(=O)NCc2ccccc2)c1)N1CCOCC1 | 12.1 |
| COc1ccc(-c2nnc(SCc3csc(N)n3)n2C)cc1 | -1.87 |
| CSC1=NC2(CCCCC2)C2=C(CCCC2)N1 | 5.84 |
| CCOC(=O)c1cc2c(ccn2-c2ccc(F)cc2)n1CC(=O)NC(C)(C)C | 8.29 |
| CCOC(=O)COc1ccccc1/C=N/O | 1.3 |
